Measured values as given in US20260022143A1, “Cyclic Peptide Inhibitors of IL-23” (JANSSEN PHARMACEUTICA NV, priority 2022, published 2026).
Not every detail of the peptide structures is certain; ends, links or a residue may be inferred. At least one compound was matched to its structure with a doubt left. Starred links: 1 amine or outer side, 2 acyl side, 3 side chain; linkers in the order of their positions; H or OH if unused. Positions of bridges follow the written chain, without caps; N, C: chain ends. Non-standard residues stand in square brackets, D forms with d. Residues, ends and D or L forms follow the SMILES beside them. Groups on a side chain read outwards from the residue. *: point of attachment. Trp(7-(3-AcNH-Ph)) = CC(=O)Nc1cccc(-c2cccc3c(C[C@H](N)C(=O)O)c[nH]c23)c1; Me3N+CH2CH2(OCH2CH2)4CO = C[N+](C)(C)CCOCCOCCOCCOCCC(=O)*; Me3N+(CH2)2O(CH2)2O(CH2)2CO = C[N+](C)(C)CCOCCOCCC(=O)*; Trp(7-Me) = Cc1cccc2c(C[C@H](N)C(=O)O)c[nH]c12; dLys(Me3) = C[N+](C)(C)CCCC[C@@H](N)C(=O)O; γGlu = O=C(O)[C@H](CCC(=O)[*:2])N[*:1]; 2Nal = N[C@@H](Cc1ccc2ccccc2c1)C(=O)O; AEF = NCCOc1ccc(C[C@H](N)C(=O)O)cc1; dNMeY = CN[C@H](Cc1ccc(O)cc1)C(=O)O; dLys(Me) = CNCCCC[C@@H](N)C(=O)O; 3Pal = N[C@@H](Cc1cccnc1)C(=O)O; Myristoyl = CCCCCCCCCCCCCC(=O)*; Lys(Me) = CNCCCC[C@H](N)C(=O)O; NMeK = CN[C@@H](CCCCN)C(=O)O; Pen = CC(C)(S)[C@H](N)C(=O)O; αMeK = C[C@](N)(CCCCN)C(=O)O; Thp = NC1(C(=O)O)CCOCC1; X3 = C[N+](C)(C)CCCCC*; AEEA = NCCOCCOCC(=O)O; Sar = CNCC(=O)O

Target: T1, IL-23R (Homo sapiens, UniProt Q5VWK5)
T1 construct: host or cells: HEK293
T1 sequence (Q5VWK5 24-629): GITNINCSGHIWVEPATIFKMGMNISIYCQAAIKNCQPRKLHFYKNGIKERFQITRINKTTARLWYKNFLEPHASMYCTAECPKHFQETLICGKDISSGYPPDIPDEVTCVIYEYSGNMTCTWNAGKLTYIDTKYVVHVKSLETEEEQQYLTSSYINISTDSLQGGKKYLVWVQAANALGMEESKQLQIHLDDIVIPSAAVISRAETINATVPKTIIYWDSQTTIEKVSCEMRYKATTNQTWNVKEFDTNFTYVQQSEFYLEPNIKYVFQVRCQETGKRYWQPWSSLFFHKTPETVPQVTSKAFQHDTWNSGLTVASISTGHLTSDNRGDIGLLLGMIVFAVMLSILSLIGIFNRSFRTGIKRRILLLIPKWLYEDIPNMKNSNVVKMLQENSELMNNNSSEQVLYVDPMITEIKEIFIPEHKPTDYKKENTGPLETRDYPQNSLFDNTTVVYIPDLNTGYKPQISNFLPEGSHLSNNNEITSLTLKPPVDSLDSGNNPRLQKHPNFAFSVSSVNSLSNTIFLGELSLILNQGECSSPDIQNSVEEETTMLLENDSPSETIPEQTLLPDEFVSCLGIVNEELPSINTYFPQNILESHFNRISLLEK
Experiment: IL23R Reporter Assay
Type: cell-based
Conditions: HEK293 cells containing IL-23R, IL-12RP1 and STAT-inducible firefly luciferase reporter; 10 ng/mL IL-23 (EC90); 5 h at 37° C.

Row | Structure (SMILES) | IC50
1 | CC(=O)NCCCC[C@@H]1NC(=O)[C@H](Cc2c[nH]c3c(C)cccc23)NC(=O)[C@H]([C@@H](C)O)NC(=O)[C@H](CC(N)=O)NC(=O)[C@@H](NC(C)=O)C(C)(C)SSC(C)(C)[C@@H](C(=O)N[C@@H](Cc2ccc(OCCN)cc2)C(=O)N[C@@H](Cc2ccc3ccccc3c2)C(=O)N[C@@](C)(CCCCN)C(=O)N[C@@H](CCCCNC(C)=O)C(=O)N[C@@H](CC(N)=O)C(=O)N(C)[C@H](Cc2ccc(O)cc2)C(N)=O)NC1=O [compound 33] (Ac-[Pen]NT[Trp(7-Me)]K(Ac)[Pen][AEF][2Nal][αMeK]K(Ac)N[dNMeY]-NH2; disulfide 1-6) | 500 nM
2 | CC(=O)NCCCC[C@@H]1NC(=O)[C@H](Cc2c[nH]c3c(-c4cccc(NC(C)=O)c4)cccc23)NC(=O)[C@H]([C@@H](C)O)NC(=O)[C@H](CC(N)=O)NC(=O)[C@@H](NC(=O)[C@@H](CCCC[N+](C)(C)C)NC(C)=O)C(C)(C)SSC(C)(C)[C@@H](C(=O)N[C@@H](Cc2ccc(OCCN)cc2)C(=O)N[C@@H](Cc2ccc3ccccc3c2)C(=O)NC2(C(=O)N[C@@H](CCCCNC(C)=O)C(=O)N[C@@H](CC(N)=O)C(=O)N[C@@H](Cc3cccnc3)C(=O)N(C)CC(N)=O)CCOCC2)NC1=O [compound 449] (Ac-[dLys(Me3)][Pen]NT[Trp(7-(3-AcNH-Ph))]K(Ac)[Pen][AEF][2Nal][Thp]K(Ac)N[3Pal][Sar]-NH2; disulfide 2-7) | 1.8 nM
3 | CC(=O)NCCCC[C@@H]1NC(=O)[C@H](Cc2c[nH]c3c(C)cccc23)NC(=O)[C@H]([C@@H](C)O)NC(=O)[C@H](CC(N)=O)NC(=O)[C@@H](NC(C)=O)C(C)(C)SSC(C)(C)[C@@H](C(=O)N[C@@H](Cc2ccc(OCCN)cc2)C(=O)N[C@@H](Cc2ccc3ccccc3c2)C(=O)NC2(C(=O)N[C@H](CCCCN(C)C(=O)CCOCCOCCOCCOCC[N+](C)(C)C)C(=O)N[C@@H](CC(N)=O)C(=O)N[C@@H](Cc3cccnc3)C(=O)N(C)CC(N)=O)CCOCC2)NC1=O [compound 111] (Ac-[Pen]NT[Trp(7-Me)]K(Ac)[Pen][AEF][2Nal][Thp][dLys(Me)](Me3N+CH2CH2(OCH2CH2)4CO)N[3Pal][Sar]-NH2; disulfide 1-6) | 4 nM
4 | CCCCCCCCCCCC(=O)N[C@@H](CCC(=O)NCCOCCOCC(=O)NCCOCCOCC(=O)NCCCC[C@@H]1NC(=O)[C@H](Cc2c[nH]c3c(C)cccc23)NC(=O)[C@H]([C@@H](C)O)NC(=O)[C@H](CC(=O)N(C)C)NC(=O)[C@@H](NC(=O)C(COCCOCC[N+](C)(C)C)NC(=O)COCCOCCNC(=O)COCCOCCNC(=O)CC[C@H](NC(=O)CCCCCCCCCCC)C(=O)O)C(C)(C)SSC(C)(C)[C@@H](C(=O)N[C@@H](Cc2ccc(OCCOCCOCC[N+](C)(C)C)cc2)C(=O)N[C@@H](Cc2ccc3ccccc3c2)C(=O)NC2(C(=O)N[C@@H](CCCCN(C)C(C)=O)C(=O)N[C@@H](CC(N)=O)C(=O)N[C@@H](Cc3cccnc3)C(=O)N(C)CC(=O)N(C)C)CCOCC2)NC1=O)C(=O)O (relative stereo) [compound 368, C12gEPEG2PEG2CO-APEG2Ser(S*)-Pen(3)-N(N(Me)2)-T-7MeW-K(PEG2PEG2gEC12)-Pen(3)-APEG3F-2Nal-THP-K(NMeAc)-N-3Pya-Sar-CON(Me)2] | 150 nM
5 | CCCCCCCCCCCCCC(=O)N[C@@H](CCC(=O)NCCOCCOCC(=O)NCCOCCOCC(=O)NCCCC[C@@H](C(N)=O)N(C)C(=O)[C@H](Cc1cccnc1)NC(=O)[C@H](CC(N)=O)NC(=O)[C@H](CCCCN(C)C(C)=O)NC(=O)C1(NC(=O)[C@H](Cc2ccc3ccccc3c2)NC(=O)[C@H](Cc2ccc(OCCCCC[N+](C)(C)C)cc2)NC(=O)[C@H]2NC(=O)[C@H](CCCCN(C)C(C)=O)NC(=O)[C@H](Cc3c[nH]c4c(C)cccc34)NC(=O)[C@H]([C@@H](C)O)NC(=O)[C@H](CC(=O)N(C)C)NC(=O)[C@@H](NC(=O)CCOCCOCC[N+](C)(C)C)C(C)(C)SSC2(C)C)CCOCC1)C(=O)O [compound 315, cPEG3aCO-Pen(3)-N(N(Me)2)-T-7MeW-K(NMeAC)-Pen(3)-TMAPF-2Nal-THP-K(NMeaC)-N-3Pya-NMeK(PEG2PEG2gEC14)-CONH2] ({Me3N+(CH2)2O(CH2)2O(CH2)2CO}-[Pen]D(NMe2)T[Trp(7-Me)][Lys(Me)](Ac)[Pen]Y(X3)[2Nal][Thp][Lys(Me)](Ac)N[3Pal][NMeK]([AEEA-AEEA-γGlu-Myristoyl])-NH2; disulfide 1-6) | 8.5 nM
6 | CCCCCCCCCCCCCC(=O)N[C@@H](CCC(=O)NCCOCCOCC(=O)NCCOCCOCC(=O)NCCCC[C@@H]1NC(=O)[C@@H](NC(=O)CCOCCOCC[N+](C)(C)C)C(C)(C)SSC(C)(C)[C@@H](C(=O)N[C@@H](Cc2ccc(OCCCCC[N+](C)(C)C)cc2)C(=O)N[C@@H](Cc2ccc3ccccc3c2)C(=O)NC2(C(=O)N[C@@H](CCCCN(C)C(C)=O)C(=O)N[C@@H](CC(N)=O)C(=O)N[C@@H](Cc3cccnc3)C(=O)N(C)CC(=O)N(C)C)CCOCC2)NC(=O)[C@H](CCCCN(C)C(C)=O)NC(=O)[C@H](Cc2c[nH]c3c(C)cccc23)NC(=O)[C@H]([C@@H](C)O)NC1=O)C(=O)O [compound 388, cPEG3aCO-Pen(3)-K(PEG2PEG2gEC14)-T-7MeW-K(NMeAc)-Pen(3)-TMAPF-2Nal-THP-K(NMeAc)-N-3Pya-Sar-CON(Me)2] ({Me3N+(CH2)2O(CH2)2O(CH2)2CO}-[Pen]K([AEEA-AEEA-γGlu-Myristoyl])T[Trp(7-Me)][Lys(Me)](Ac)[Pen]Y(X3)[2Nal][Thp][Lys(Me)](Ac)N[3Pal][Sar]-NMe2; disulfide 1-6) | 34 nM
7 | CCCCCCCCCCCCCC(=O)N[C@@H](CCC(=O)NCCOCCOCC(=O)NCCOCCOCC(=O)NCCCC[C@@H](C(N)=O)N(C)C(=O)[C@H](Cc1cccnc1)NC(=O)[C@H](CC(N)=O)NC(=O)[C@H](CCCCN(C)C(C)=O)NC(=O)C1(NC(=O)[C@H](Cc2ccc3ccccc3c2)NC(=O)[C@H](Cc2ccc(OCCCCC[N+](C)(C)C)cc2)NC(=O)[C@H]2NC(=O)[C@H](CCCCNC(C)=O)NC(=O)[C@H](Cc3c[nH]c4c(C)cccc34)NC(=O)[C@H]([C@@H](C)O)NC(=O)[C@H](CC(=O)N(C)C)NC(=O)[C@@H](NC(=O)COCCOCCNC(=O)COCCOCCNC(=O)CC[C@H](NC(=O)CCCCCCCCCCCCC)C(=O)O)C(C)(C)SSC2(C)C)CCOCC1)C(=O)O [compound 350, C14gEPEG2PEG2CO-Pen(3)-N(N(Me)2)-T-7MeW-K(Ac)-Pen(3)-TMAPF-2Nal-THP-K(NMeac)-N-3Pya-NMeK(PEG2PEG2gEC14)-CONH2] ({Myristoyl-γGlu-AEEA-AEEA}-[Pen]D(NMe2)T[Trp(7-Me)]K(Ac)[Pen]Y(X3)[2Nal][Thp][Lys(Me)](Ac)N[3Pal][NMeK]([AEEA-AEEA-γGlu-Myristoyl])-NH2; disulfide 1-6) | 190 nM
8 | CC(=O)NCCCC[C@@H]1NC(=O)[C@H](Cc2c[nH]c3c(C)cccc23)NC(=O)[C@H]([C@@H](C)O)NC(=O)[C@H](CC(N)=O)NC(=O)[C@@H](NC(=O)CCCCC[N+](C)(C)C)C(C)(C)SSC(C)(C)[C@@H](C(=O)N[C@@H](Cc2ccc(OCCNC(=O)CCOCCOCC[N+](C)(C)C)cc2)C(=O)N[C@@H](Cc2ccc3ccccc3c2)C(=O)NC2(C(=O)N[C@@H](CNC(C)=O)C(=O)N[C@@H](CC(N)=O)C(=O)N[C@@H](Cc3cccnc3)C(=O)N(C)CC(N)=O)CCOCC2)NC1=O [compound 192] | 4.1 nM
9 | CCCCCCCCCCCCCC(=O)N[C@@H](CCC(=O)NCCOCCOCC(=O)NCCOCCOCC(=O)NCCCC[C@@H]1NC(=O)[C@@H](NC(=O)CCOCCOCC[N+](C)(C)C)C(C)(C)SSC(C)(C)[C@@H](C(=O)N[C@@H](Cc2ccc(OCCCCC[N+](C)(C)C)cc2)C(=O)N[C@@H](Cc2ccc3ccccc3c2)C(=O)NC2(C(=O)N[C@@H](CCCCN(C)C(C)=O)C(=O)N[C@@H](CC(N)=O)C(=O)N[C@@H](Cc3cccnc3)C(=O)N(C)[C@@H](CCCCNC(=O)COCCOCCNC(=O)COCCOCCNC(=O)CC[C@H](NC(=O)CCCCCCCCCCCCC)C(=O)O)C(N)=O)CCOCC2)NC(=O)[C@H](CCCCNC(C)=O)NC(=O)[C@H](Cc2c[nH]c3c(C)cccc23)NC(=O)[C@H]([C@@H](C)O)NC1=O)C(=O)O [compound 357, cPEG3aCO-Pen(3)-K(PEG2PEG2gEC14)-T-7MeW-K(Ac)-Pen(3)-TMAPF-2Nal-THP-K(NMeac)-N-3Pya-NMeK(PEG2PEG2gEC14)-CONH2] ({Me3N+(CH2)2O(CH2)2O(CH2)2CO}-[Pen]K([AEEA-AEEA-γGlu-Myristoyl])T[Trp(7-Me)]K(Ac)[Pen]Y(X3)[2Nal][Thp][Lys(Me)](Ac)N[3Pal][NMeK]([AEEA-AEEA-γGlu-Myristoyl])-NH2; disulfide 1-6) | 310 nM
10 | CCCCCCCCCCCCCC(=O)N[C@@H](CCC(=O)NCCOCCOCC(=O)NCCOCCOCC(=O)N[C@@H](COCCOCC[N+](C)(C)C)C(=O)N[C@@H]1C(=O)N[C@@H](CC(=O)N(C)C)C(=O)N[C@@H]([C@@H](C)O)C(=O)N[C@@H](Cc2c[nH]c3c(C)cccc23)C(=O)N[C@@H](CCCCN(C)C(C)=O)C(=O)N[C@H](C(=O)N[C@@H](Cc2ccc(OCCOCCOCC[N+](C)(C)C)cc2)C(=O)N[C@@H](Cc2ccc3ccccc3c2)C(=O)NC2(C(=O)N[C@@H](CCCCN(C)C(C)=O)C(=O)N[C@@H](CC(N)=O)C(=O)N[C@@H](Cc3cccnc3)C(=O)N(C)CC(=O)N(C)C)CCOCC2)C(C)(C)SSC1(C)C)C(=O)O (relative stereo) [compound 367, C14gEPEG2PEG2CO-APEG2Ser(S*)-Pen(3)-N(N(Me)2)-T-7MeW-K(NMeAc)-Pen(3)-APEG3F-2Nal-THP-K(NMeAc)-N-3Pya-Sar-CON(Me)2] | 9.1 nM
